This note sets out measurements from ChEMBL document CHEMBL4888484, “Replenishing the malaria drug discovery pipeline: Screening and hit evaluation of the MMV Hit Generation Library 1 (HGL1) against asexual blood stage Plasmodium falciparum ,using a nano luciferase reporter read-out” (2022).

The whole screen tested about 150,000 compounds, of which about 540 (0.36%) showed an effect of 50% or more. Some of the results follow.

This assay deals with Plasmodium falciparum. Briefly: Primary screen in NF54 nanoGlo assay, in single point, at 2uM, 72h; a lower Z score goes with more inhibition. It is filed as functional, Erythrocyte. The note with it: timepoint 72 hour.
As a reminder, the % Inhibition is the relative decrease from the control value, in per cent. `COc1ccc(-c2[nH]ncc2C(=O)NC[C@@H]2CCCN3CCCC[C@H]23)cc1Cl`: the “% Inhibition” value is recorded as -15% and the Z score was found to be 1.86.
In the same order, the values of `Cc1cc(F)ccc1[C@H]1C(=O)NCCN1CCc1scnc1C` are -9% and 1.57.
The corresponding values for `C#CCN(Cc1nc(C)ccc1O)CC1CC1` are -10% and 1.27.
In the same order, the values of `CCc1ccc(NC(=O)C2c3ccccc3C(=O)N(CCOC)C2c2cn(S(=O)(=O)c3ccccc3)c3ccccc23)cc1` (stereo not drawn) are 7% and -0.88.
Regarding `CN(CC=Cc1ccc(Br)cc1)CCO`, the “% Inhibition” value was -2% and the Z score was determined as 0.23.
The corresponding values for `CN1CCC[C@@](O)(CN2CCN(Cc3ccc4c(c3)OCO4)C(=O)C2)C1=O` are -13% and 2.01.
In the same order, the values of `CC(C)N1C(=O)C[C@H](NC(=O)C(=O)Nc2cc(-c3ccncc3)nn2C)C1=O` are -8% and 1.32.
In the same order, the values of `C[C@H](NC(=O)C1CCC1c1ccc(F)cc1)C(=O)N1Cc2ccccc2C1` (stereo partly drawn) are 1% and -0.15.
On to `CCc1noc(C)c1NC(=O)NC1CN(Cc2ccccc2)CC1C` (stereo not drawn), for which the “% Inhibition” value was -13% and the Z score worked out at 1.16.
As to `O=C(CCC1CCC1)Nc1cnccn1`, the “% Inhibition” value is -9% and the Z score stood at 1.71.
Take `COCC1(NC(=O)c2ccc(-c3ncon3)cc2)CCOCC1`: the “% Inhibition” value is 5% and the Z score is given as -0.9.
In the same order, the values of `N#Cc1c(F)cccc1N1CCCN(c2cccc(F)c2C#N)CC1` are 2% and -0.24.
In the same order, the values of `COCCNC(=O)NCC[C@H](O)c1cccc(Cl)c1` are -5% and 0.9.
The corresponding values for `CS(=O)(=O)c1ccc(OC[C@@]2(CNS(=O)(=O)c3ccc(F)cc3)C[C@@H](O)[C@@H](O)C2)cc1` are -10% and 1.55.
Take `CCCc1nc(CNC(=O)[C@H]2CCOc3ccccc3C2)cs1`: the “% Inhibition” value is recorded as -9% and the Z score is reported as 1.2.
The corresponding values for `C[C@@H]1CN(C(=O)OC(C)(C)C)C[C@H](C)N1Cc1ccc(C(=O)N(C)C)[nH]1` are -1% and 0.14.
The corresponding values for `CN(C)CCN(C(=O)[C@H]1CCn2ccnc2C1)C1CCCC1` are -5% and 0.7.
As to `CCN1CC[C@@]2(CCC1=O)CN(c1nc(-c3ccccc3)no1)CCN2C`, the “% Inhibition” value is on record as -5% and the Z score turned out to be 1.01.
For the compound `CC(=O)N1CCN(C(=O)[C@@H]2CC(=O)c3sc(NC(=O)CCC4CCCCC4)nc3C2)CC1`, the “% Inhibition” value was -16% and the Z score is 2.2.
For `CC(=O)NC1C2CCCN(c3ncc(Cl)s3)C2C1(C)C` (stereo not drawn), the “% Inhibition” value is reported as -3% and the Z score came to 0.46.
Turning to `Cc1ncsc1CCc1nc(CC(N)=O)nn1CC(C)(C)O`, the “% Inhibition” value was -14% and the Z score is 1.19.
In the same order, the values of `Cc1csc(NC(=O)[C@]2(C)Oc3ccccc3NC2=O)n1` are 36% and -1.34.
In the same order, the values of `Cc1cc(C(=O)N[C@H]2CCN(c3nccn4cnnc34)C2)c(C)o1` are 6% and -0.74.
As for `CC(=O)CN1C(=O)[C@@H]2CCCN2C(=O)c2ccccc21`, the “% Inhibition” value was -15% and the Z score was 1.87.
Consider `Cc1cccc(C2CCCN(C(=O)CC3(c4ccccc4F)CC(=O)N(C)C3=O)C2)c1` (stereo not drawn), for which the “% Inhibition” value was -1% and the Z score was found to be 0.19.
With `Cc1cc(F)ccc1CNCc1cc(CC(C)C)no1`, the “% Inhibition” value is -12% and the Z score turned out to be 1.56.
Consider `Cc1cc(=O)c(C(=O)O)c(CCc2ccccc2)n1C[C@H]1CCCO1`, for which the “% Inhibition” value turned out to be 7% and the Z score is -0.84.
Take `CC(=O)c1ncn(Cc2nc(-c3ccccc3Cl)oc2C)n1`: the “% Inhibition” value is 5% and the Z score was -0.44.
As for `CCOc1ccc([C@@H]2C=C(c3cccnc3)Nc3nnnn32)cc1OC`, the “% Inhibition” value is -9% and the Z score was 1.43.
For the compound `CCCN1CCC[C@H]1CNC(=O)c1nc(C)sc1Br`, the “% Inhibition” value is -4% and the Z score turned out to be 0.5.
In the same order, the values of `CC(=O)N1CCC(CN(C)C(=O)NC(C)c2cc(C)c(F)c(C)c2)C1` (stereo not drawn) are 38% and -3.44.
The corresponding values for `Cc1oc(C(C)C)cc1C(=O)N[C@H]1CCOC[C@@H]1OCC1CC1` are -5% and 0.96.
The corresponding values for `CC[C@H](OC)c1nc(Cc2ccc(OC)cc2)nn1CC(C)(C)O` are -3% and 0.54.
Take `CC(C)(C#N)NC(=O)Cc1ccn(-c2ccccc2)n1`: the “% Inhibition” value is 1% and the Z score is recorded as -0.11.
The corresponding values for `O=C(Nc1ccc(F)cc1)c1nc(-c2cn(-c3ccc(F)cc3)nn2)no1` are -1% and 0.21.
Regarding `Cc1ccc(-c2ccc(C(=O)N3[C@@H]4CC[C@H]3C[C@@H](O)C4)cc2)o1`, the “% Inhibition” value was -12% and the Z score is recorded as 1.77.
In the same order, the values of `COc1ccc(Nc2cc(N[C@@H](CO)c3cnn(C)c3)ncn2)c(OC)c1` are -13% and 1.7.
The corresponding values for `CCC1(NC(=O)c2cc(-c3ccn(C)n3)on2)CCC1` are -18% and 2.37.
As to `CN(CC(=O)NC1CCCCCCC1)Cc1cc[nH]n1`, the “% Inhibition” value is 0% and the Z score is -0.03.
Take `C[C@H](OC(=O)CNC(=O)OC(C)(C)C)C(=O)N1CCCCCC1`: the “% Inhibition” value is listed as -12% and the Z score came to 1.29.
With `CC(C)CN(CC(=O)N[C@](C)(C#N)C1CC1)C1CC1`, the “% Inhibition” value is reported as -16% and the Z score is on record as 2.11.
In the same order, the values of `COc1ccc(C(=O)N(CC(=O)N2CCc3sccc3[C@@H]2COc2ccc(C)cc2C)C(C)(C)C)cc1` are -10% and 1.01.
The corresponding values for `O=C(CC[C@@H]1NC(=O)N(Cc2ccccc2Cl)C1=O)NC1CCS(=O)(=O)C1` (stereo partly drawn) are -3% and 0.49.
For the compound `CC[C@H](OC)c1nc(CCOC)nn1CC(=O)O`, the “% Inhibition” value was -2% and the Z score came to 0.22.
In the same order, the values of `COc1ccc(-c2nn3c(NCc4ccccc4)cc(C)nc3c2C)cc1OC` are -12% and 2.33.
In the same order, the values of `CCC(=O)N1CCN(C(=O)CC[C@H]2CCC(=O)N2)C1` are -8% and 0.81.
Consider `Cc1ncsc1CCC(=O)N(Cc1ccccc1)[C@H]1CCCC[C@@H]1O`, for which the “% Inhibition” value is -9% and the Z score worked out at 1.23.
The corresponding values for `NS(=O)(=O)c1ccccc1Cc1ccc(-n2cccn2)cc1` are -7% and 1.28.
Regarding `O=C(Nc1cnccc1O)c1cnccn1`, the “% Inhibition” value is given as 3% and the Z score is reported as -0.42.
In the same order, the values of `CS(=O)(=O)N1C[C@@H](CC(=O)O)[C@@H](c2c[nH]nn2)C1` are -5% and 0.95.
In the same order, the values of `C[C@H]1CCc2c(sc(=O)n2CN(C)Cc2cccc(C#N)c2)C1` are -11% and 1.09.
The corresponding values for `Cc1noc(C)c1CON=C(N)c1ccc(N(C)C)cc1` are 2% and -0.21.
For the compound `COc1ccc(Cl)cc1CN1CCN(CCC2OCCO2)CC1`, the “% Inhibition” value is recorded as -7% and the Z score was 0.94.
As to `O=C(CCc1ccno1)NC1(CN2CCOCC2)CCCC1`, the “% Inhibition” value is -2% and the Z score is recorded as 0.28.
